According to PubChem BioAssay AID602310 (National Center for Advancing Translational Sciences (NCATS), 2012):
Screen size: about 410,000 compounds; about 310 (0.076%) were called active. The shares of active, inactive and inconclusive entries below differ from those in the screen. Calls follow the shape of the dose curve; as a rule, active = well fitted curve in the direction sought with a large enough effect; inconclusive = small, poorly fitted or top-dose-only effect; inactive = flat fitted curve, though single readings scatter. A potency beside an inconclusive call is a rough fit, not a confirmed value.

Each compound was assayed against DNA dC->dU-editing enzyme APOBEC-3G (Homo sapiens) (UniProt Q9HC16) (assay: qHTS for Inhibitors of Vif-A3G Interactions: qHTS). Conditions: HeLa A3G-eYFP + Vif (tagged APOBEC3G with the HIV-1 protein that degrades it), YFP fluorescence, overnight; series mostly up to 46.1 µM.
Chain of UniProt Q9HC16 (Q9HC16 whole entry, looked up): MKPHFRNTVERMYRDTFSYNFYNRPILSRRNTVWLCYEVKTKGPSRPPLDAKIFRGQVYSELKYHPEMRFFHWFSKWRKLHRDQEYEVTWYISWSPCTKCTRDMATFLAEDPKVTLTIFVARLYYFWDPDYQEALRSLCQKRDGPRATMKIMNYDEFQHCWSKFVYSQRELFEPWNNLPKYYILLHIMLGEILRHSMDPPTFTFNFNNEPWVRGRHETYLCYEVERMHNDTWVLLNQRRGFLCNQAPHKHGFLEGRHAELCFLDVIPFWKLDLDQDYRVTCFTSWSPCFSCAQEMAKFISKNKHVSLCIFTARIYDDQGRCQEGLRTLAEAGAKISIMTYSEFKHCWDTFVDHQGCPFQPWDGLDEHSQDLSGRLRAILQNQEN
How it was run: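 Read-out is eYFP fluorescence (Ex 488/Em 500-530) from Vif-expressing HeLa A3G-eYFP cells; more signal means A3G escaped Vif-mediated degradation. Cells plated overnight, compound pinned in, incubated overnight at 37 deg C.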
Also: nearly all actives have a fitted effect of over 60% in size.
Potency is read from the fitted curve at half-maximal effect; tags tell the direction and shape of the fitted curve.

Structure (SMILES) | Potency
Cc1ccc(-c2c[n+](CC(=O)N3c4ccccc4Sc4ccccc43)c3n2CCC3)cc1 | inactive
COc1ccc(NC(=O)CSc2nc3c(oc4ccccc43)c(=O)n2Cc2ccco2)cc1Cl | inconclusive: 11.2 µM [inhibitor, partial curve]
Cc1ccc(Cc2c(-c3ccc(Br)cc3)nc3ccc(Br)cn23)cc1 | inconclusive: 8.91 µM [inhibitor, partial curve, poor fit]
O=C(O)c1ccc(N/N=C/C(Br)=C/c2ccccc2)cc1 | inconclusive: 15.8 µM [inhibitor, partial curve, poor fit]
COc1ccc(/C=N/NC(=O)c2cccnc2)cc1COc1ccc([N+](=O)[O-])cc1 | inconclusive: 6.31 µM [inhibitor, full curve, poor fit]
NC(=O)C1CCN(c2oc(-c3cccs3)nc2S(=O)(=O)c2ccc(Cl)cc2)CC1 | inactive
COc1cc(C(=O)OCC(=O)c2cc(C)n(C)c2C)cc(OC)c1OC | inconclusive: 10 µM [inhibitor, partial curve]
Cc1cc(C)cc(NC(=O)Cn2cc(C(=O)C3CCCCC3)c3ccccc32)c1 | inconclusive: 20 µM [inhibitor, single point]
C#CCOCCOCCOCCNc1nc(N2CCN(C(=O)CCCCCCCCCCNC(=O)[C@@H](CCC(=O)O)n3cc(CCCCCN)nn3)CC2)nc(N2CCN(C(=O)CCCCCCCCCCNC(=O)[C@H](CCCCN)n3cc(C[C@@H](C)CC)nn3)CC2)n1 | inconclusive: 15.8 µM [inhibitor, partial curve, poor fit]
COc1ccc2nccc(/C=C/c3ccc(N(C)C)cc3)c2c1 | inconclusive: 3.98 µM [inhibitor, full curve]
COc1cc(OC)c(C(=O)/C=C/c2ccccc2)c(O)c1O | inconclusive: 25.1 µM [inhibitor, single point]
CCOc1ccc(/C=C/[N+](=O)[O-])c2ccccc12 | inconclusive: 11.2 µM [inhibitor, partial curve]
O=C(Nc1nc2ccccc2s1)c1cnccn1 | inconclusive: 15.8 µM [inhibitor, single point]
CCOc1ccc(Cn2c3ccc(OC)cc3c3nc4ccccc4nc32)cc1OC | inconclusive: 11.2 µM [inhibitor, partial curve]
Cc1cc(C)c2cc(CN(Cc3nnnn3C3CCCCC3)CC3CCCO3)c(=O)[nH]c2c1 (stereo not given) | inactive
CCCCCc1cc(=O)oc2c(C(CCN3CCCC3)c3cc(OC)c(OC)c(OC)c3)c(OC)cc(OC)c12 (stereo not given) | inconclusive: 35.5 µM [inhibitor, single point]
COCCNC(=O)C(c1ccc(C)o1)N(CCOC)C(=O)Cn1nnc2ccccc21 (stereo not given) | inactive
COCCn1c(-c2ccc(OC)cc2)nc2ccccc21 | inactive
COCc1ccc(C(=O)N2CCCC(CCC(=O)NCc3ccccc3F)C2)o1 (stereo not given) | inconclusive: 11.2 µM [inhibitor, partial curve, poor fit]
COc1ccc(S(=O)(=O)Nc2ccc3oc4c(c3c2)CCCC4)cc1 | inconclusive: 7.94 µM [inhibitor, partial curve, poor fit]
Cc1c(C(=O)N2CCN(c3ccccc3)CC2)oc2c(F)cccc12 | inconclusive: 28.2 µM [inhibitor, single point]
COc1ccc(/C=C2\SC(N3CCc4ccccc4C3)=NC2=O)cc1 | inactive

Structure (SMILES) | Potency
O=C1CCCC2=C1C(c1cccs1)Nc1ccc3ncccc3c12 (stereo not given) | inconclusive: 22.4 µM [inhibitor, single point]
O=C(COc1ccc(Cl)cc1)Nc1cnn(Cc2c(Cl)cccc2Cl)c1 | inactive
CC(C)NC(=S)N/N=C/c1sc(N2CCCCC2)nc1-c1cccs1 | inconclusive: 10 µM [inhibitor, partial curve, poor fit]
Cc1ccc(COc2ccccc2-c2cc(C(=O)N/N=C/c3cccnc3)[nH]n2)cc1 | inconclusive: 2.82 µM [inhibitor, single point]
Cc1ccsc1C1NC(=O)c2ccccc2N1 (stereo not given) | inconclusive: 11.2 µM [inhibitor, partial curve]
N#C/C(=C\c1ccc(O)c([N+](=O)[O-])c1)C(=O)NCc1ccccc1 | inconclusive: 25.1 µM [inhibitor, single point]
Oc1ccc(-c2csc(-c3c[nH]c4ccccc34)n2)c(O)c1 | inconclusive: 10 µM [inhibitor, partial curve]
COC(=O)C(C)N1C(=O)S/C(=C\c2ccc(-c3ccc(C(=O)O)cc3C)o2)C1=O (stereo not given) | inconclusive: 11.2 µM [inhibitor, partial curve]
COc1cccc(-n2c(-c3ccc4[nH]c(C)c(C)c4c3)n[nH]c2=S)c1 | inactive
COc1ccc2c(c1)c(=O)c(S(=O)(=O)c1ccccc1)cn2CC(=O)Nc1ccc(C)c(Cl)c1 | inactive
COc1cccc(-n2c(SCC(N)=O)nc3c([nH]c4ccccc43)c2=O)c1 | inconclusive: 35.5 µM [inhibitor, single point]
CN1C2CCC1/C(=C\c1ccccc1)C(=O)/C2=C\c1ccccc1 | inconclusive: 11.2 µM [inhibitor, partial curve, poor fit]
Cn1nnnc1Sc1ncnc2scc(-c3ccc(C(F)(F)F)cc3)c12 | inconclusive: 12.6 µM [inhibitor, partial curve]
CCOC(=O)Cc1csc(NC(=S)NC(=O)CC(C)C)n1 | inconclusive: 20 µM [inhibitor, single point]
CCOC(=O)N1CCc2c(sc3c2C(=O)NC(c2cc(OC)c(OC)c(OC)c2)N3)C1 (stereo not given) | inconclusive: 2.82 µM [inhibitor, full curve, poor fit]
CCOc1ccc(S(=O)(=O)N2c3ccccc3CC2C)cc1 (stereo not given) | inconclusive: 0.631 µM [inhibitor, full curve, poor fit]
CN(C)c1ccc(/C=C/C(=O)c2c(O)c3ccccc3oc2=O)cc1 | inconclusive: 1.58 µM [inhibitor, partial curve, poor fit]
CC(=O)Nc1nonc1-c1nnc(SCc2ccccc2F)n1C | inactive
O=C(COc1ccc(F)cc1Cl)Nc1cccc(S(=O)(=O)N2CCCC2)c1 | inactive
CCc1cc[n+](CC(=O)c2ccc(F)cc2)cc1C(=O)O | inactive
CCOC(=O)c1ccc(-c2ccc(C(=O)Nc3cccnc3)o2)cc1 | inconclusive: 15.8 µM [inhibitor, single point]
CCCn1nc(NC(=O)c2ccncc2)c2cc3ccccc3nc21 | inactive

Structure (SMILES) | Potency
COc1ccc(OC)c(C2CC(c3ccccc3)=NN2C(=S)Nc2ccccc2)c1 (stereo not given) | inconclusive: 2.51 µM [inhibitor, full curve, poor fit]
Cc1[nH]c2ccccc2c1/C=N/Nc1ccc([N+](=O)[O-])cc1S(=O)(=O)Nc1ccc(Cl)cc1 | inactive
COc1ccc(OC)c(NC(=O)CN2C(=O)CC(C)Sc3ccccc32)c1 (stereo not given) | inactive
Nc1nc(Cl)cc(Sc2ccc3ccccc3c2)n1 | inconclusive: 7.08 µM [inhibitor, full curve]
CC1CCc2c(cc(-c3ccccc3)n2-c2ccc(C(=O)NC(C)C)cc2)C1 (stereo not given) | inconclusive: 35.5 µM [inhibitor, single point]
CCC(CC)C(=O)N(CCc1ccc(OC)cc1)Cc1nc2ccccc2c(=O)[nH]1 | inconclusive: 35.5 µM [inhibitor, single point]
CCn1cc(C(=O)N2CCN(c3ccccn3)CC2)c(=O)c2cc(S(=O)(=O)N(C)C3CCCCC3)ccc21 | inconclusive: 22.4 µM [inhibitor, single point]
CCOc1ccc(NC(=O)c2nc(S(=O)(=O)Cc3ccccc3C)ncc2Cl)cc1 | inconclusive: 22.4 µM [inhibitor, single point]
Cc1ccc(-c2nnc(SCC(=O)N/N=C/c3ccccc3C(=O)O)n2-c2ccc(Cl)cc2)cc1 | inactive
Cc1ccsc1C=Nc1ccc(O)cc1 | inconclusive: 25.1 µM [inhibitor, single point]
CS(=O)(=O)c1ccc(S(=O)CC(=O)Oc2ccc(Cl)cc2)c([N+](=O)[O-])c1 (stereo not given) | inconclusive: 35.5 µM [inhibitor, single point]
COc1cc(/C=C(\C#N)c2nc3ccccc3[nH]2)ccc1Oc1ccc([N+](=O)[O-])cn1 | inconclusive: 17.8 µM [inhibitor, partial curve, poor fit]
Cc1cccc(C(=O)NCC(=O)NC(C)CCc2ccccc2)c1 (stereo not given) | inactive
O=C(CSc1nnc(-c2ccc(S(=O)(=O)N3CCCC3)cc2)o1)NCc1ccccc1 | inconclusive: 11.2 µM [inhibitor, single point]
Cc1cc(NC(=O)CCn2c(=O)c3cccn3c3cccnc32)ccc1Br | inactive
CCOCC(=O)NC1CCc2cc(OC)c(OC)c(OC)c2-c2ccc(SC)c(=O)cc21 (stereo not given) | inactive
COc1cc(NCc2ccccc2O)c2ncccc2c1 | inconclusive: 11.2 µM [inhibitor, partial curve]
Cc1ccc(NC2=CC(=O)CC(c3ccccc3)C2)cc1 (stereo not given) | inconclusive: 7.08 µM [inhibitor, partial curve]
CCCn1c(CCC(=O)Nc2cc(OC)cc(OC)c2)nc2cccnc21 | inactive
COc1ccc(-c2ccc3c(c2)S(=O)(=O)c2cccc(C(=O)NCc4cccc(OC(F)(F)F)c4)c2C3=O)cc1OC | inconclusive: 2.51 µM [inhibitor, partial curve, poor fit]
COc1cc2ccccc2cc1C(=O)N/N=C/c1cccnc1 | inconclusive: 10 µM [inhibitor, partial curve]
